# This is one part of the list. The energies were worked out here from pooled read counts, against the library average; single values are noisy.
# Target: T1, Pho4 (S. cerevisiae) (UniProt P07270)
# T1 sequence: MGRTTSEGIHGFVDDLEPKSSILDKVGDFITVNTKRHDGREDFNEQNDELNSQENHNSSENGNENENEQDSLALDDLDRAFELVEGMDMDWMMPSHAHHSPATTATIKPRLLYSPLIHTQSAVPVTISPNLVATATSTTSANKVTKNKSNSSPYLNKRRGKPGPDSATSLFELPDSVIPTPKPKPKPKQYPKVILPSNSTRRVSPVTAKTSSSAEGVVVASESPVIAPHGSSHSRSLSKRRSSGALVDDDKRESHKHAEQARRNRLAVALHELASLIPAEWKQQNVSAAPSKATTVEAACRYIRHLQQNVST
# Assay: relative binding free energy (BET-seq); higher = weaker binding
# Conditions: reference: library average
row,Sequence,relative binding free energy
1,AAAGTCACGTGTTGAA,0.15 kcal/mol
2,TGCTTCACGTGATGAG,0.28 kcal/mol
3,ATTTACACGTGCAGTT,-0.03 kcal/mol
4,TCTATCACGTGGTTAT,0.06 kcal/mol
5,GTTGTCACGTGAACAT,0.4 kcal/mol
6,GTGGGCACGTGAGTAA,0.06 kcal/mol
7,TCTGTCACGTGTATCG,0.11 kcal/mol
8,TAGTGCACGTGGGCAA,-0.22 kcal/mol
9,TCAGTCACGTGGTTAG,-0.13 kcal/mol
10,CGTGGCACGTGAAAAG,0.11 kcal/mol
11,GTAGTCACGTGATGTC,0.21 kcal/mol
12,AGGTGCACGTGTTAAT,-0.01 kcal/mol
13,ATAATCACGTGAAGTT,0.19 kcal/mol
14,TTATGCACGTGTCGTT,0.01 kcal/mol
15,GATTACACGTGATTTA,0.38 kcal/mol
16,AGAATCACGTGGAGTG,0.04 kcal/mol
17,ATGGGCACGTGATAGC,-0.04 kcal/mol
18,TCTTTCACGTGAAGGG,0.38 kcal/mol
19,GATGACACGTGGGTAT,0.03 kcal/mol
20,GGTCGCACGTGTTGCG,0.05 kcal/mol
21,GGATGCACGTGCAGAG,0.1 kcal/mol
22,GAGGACACGTGCTAGG,0.09 kcal/mol
23,AGGGTCACGTGAGAAG,0.42 kcal/mol
24,TGTGGCACGTGGACGA,-0.24 kcal/mol
25,TGTTACACGTGGGCTT,-0.14 kcal/mol
26,GGTGACACGTGATAGC,0.2 kcal/mol

row,Sequence,relative binding free energy
1,GTTGTCACGTGATTGG,0.15 kcal/mol
2,GGTATCACGTGACGGG,0.39 kcal/mol
3,TATAGCACGTGGTCTA,-0.13 kcal/mol
4,AAATGCACGTGGGGTG,-0.22 kcal/mol
5,TGAATCACGTGCAGGT,0.15 kcal/mol
6,TTAAACACGTGGGAAT,-0.07 kcal/mol
7,GATAACACGTGTTGTA,-0.11 kcal/mol
8,GTGGCCACGTGATTTT,0.21 kcal/mol
9,TGGCGCACGTGGTAGT,-0.14 kcal/mol
10,AAAGTCACGTGAGGGT,0.4 kcal/mol
11,AGAGTCACGTGAACGG,0.36 kcal/mol
12,TGGGACACGTGGACTG,-0.04 kcal/mol
13,TTCGGCACGTGTTAGC,0.03 kcal/mol
14,GAGAACACGTGTGGGG,0.07 kcal/mol
15,GTATGCACGTGTTTGG,-0.02 kcal/mol
16,GAACGCACGTGTAGTT,0.07 kcal/mol
17,TAGTACACGTGTGATG,0.14 kcal/mol
18,GTGCTCACGTGTAGGT,0.07 kcal/mol
19,TTTATCACGTGTCCGT,0.09 kcal/mol
20,GTGAGCACGTGATGCG,-0.08 kcal/mol
21,CTTGTCACGTGAGCTT,0.33 kcal/mol
22,CGTTTCACGTGGGGCT,0.11 kcal/mol
23,GGTCTCACGTGTATTG,0.19 kcal/mol
24,ATGTTCACGTGGTGGG,0.2 kcal/mol
25,CATGACACGTGGTGTG,-0.08 kcal/mol
26,GTGATCACGTGGTTTA,-0.05 kcal/mol

row,Sequence,relative binding free energy
1,CTGGCCACGTGGTGGA,-0.14 kcal/mol
2,TTTTCCACGTGGGTGT,-0.14 kcal/mol
3,ATTTGCACGTGGGAAT,0.03 kcal/mol
4,GGGAACACGTGAAGTT,0.47 kcal/mol
5,AATGACACGTGGTGTC,0.08 kcal/mol
6,GGGGTCACGTGTCGTT,0.2 kcal/mol
7,AGTAGCACGTGGTGGC,-0.2 kcal/mol
8,TGCTACACGTGCGGTT,0.13 kcal/mol
9,TTCTTCACGTGTTGAT,0.18 kcal/mol
10,GGTTTCACGTGTTCTC,0.31 kcal/mol
11,ACTGTCACGTGGTCGT,0.05 kcal/mol
12,GGGGGCACGTGTGAAC,0.05 kcal/mol
13,GCGAGCACGTGTGGAG,0.01 kcal/mol
14,ATTGGCACGTGGGAGT,-0.17 kcal/mol
15,AATATCACGTGGGGGT,-0.04 kcal/mol
16,GTTAGCACGTGGTCGT,-0.06 kcal/mol
17,GTGGACACGTGTTAAG,0.04 kcal/mol
18,AGTAACACGTGTGGGA,0.11 kcal/mol
19,GGGGCCACGTGTCGGG,0 kcal/mol
20,GTTGTCACGTGTTAGC,0.14 kcal/mol
21,TAGGACACGTGGACGT,-0.02 kcal/mol
22,GTAGACACGTGGTGGG,-0.01 kcal/mol
23,GTGTGCACGTGATTGT,0.18 kcal/mol
24,GTATGCACGTGGTGTA,-0.1 kcal/mol
25,AGGGGCACGTGAGTTC,0.16 kcal/mol
26,TTTGGCACGTGGACAA,0 kcal/mol

row,Sequence,relative binding free energy
1,TGATTCACGTGATTAT,0.24 kcal/mol
2,TGTCGCACGTGCGTTT,-0.14 kcal/mol
3,CATTGCACGTGTGGTA,0.08 kcal/mol
4,TTGGGCACGTGTATCA,-0.03 kcal/mol
5,CTGTACACGTGAGGCG,0.39 kcal/mol
6,GAAGGCACGTGTTTAT,-0.06 kcal/mol
7,GTATTCACGTGATTGG,0.35 kcal/mol
8,GGTGACACGTGGTATA,-0.13 kcal/mol
9,GATATCACGTGTGGGG,0.17 kcal/mol
10,TGTCTCACGTGGCGGG,0.2 kcal/mol
11,TAGATCACGTGGCGGG,0.06 kcal/mol
12,GGCGGCACGTGTGCGT,-0.03 kcal/mol
13,AGAGGCACGTGCATTG,-0.13 kcal/mol
14,TTCGTCACGTGCGAGT,0.03 kcal/mol
15,TGTGACACGTGTATCA,0.09 kcal/mol
16,TTGTGCACGTGGTGTC,-0.04 kcal/mol
17,TCTGTCACGTGAGTTT,0.28 kcal/mol
18,GGGCGCACGTGAGGGG,0.16 kcal/mol
19,TAGAACACGTGTGGTA,0.05 kcal/mol
20,CGTATCACGTGGGTCA,0.07 kcal/mol
21,TGGTGCACGTGATTAA,0 kcal/mol
22,TATAGCACGTGGTGTC,-0.15 kcal/mol
23,TGGAGCACGTGAGCTA,0.24 kcal/mol
24,TATGGCACGTGGACGG,0.03 kcal/mol
25,ATATTCACGTGTGTTA,0.29 kcal/mol
26,AGAATCACGTGGGCTG,0.11 kcal/mol

row,Sequence,relative binding free energy
1,TGAGGCACGTGTTATT,-0.12 kcal/mol
2,CTATGCACGTGTTGGA,0.07 kcal/mol
3,CAGTGCACGTGTTTGT,-0.01 kcal/mol
4,GAAGGCACGTGGCGCG,-0.17 kcal/mol
5,TGCGGCACGTGGGTTG,-0.11 kcal/mol
6,ATGAGCACGTGTTGTG,-0.08 kcal/mol
7,ACGTTCACGTGTTTGT,0.23 kcal/mol
8,TCGGGCACGTGACGGA,0.12 kcal/mol
9,TGTTACACGTGGATTT,0.25 kcal/mol
10,ATATTCACGTGTGTTG,0.23 kcal/mol
11,ATTTGCACGTGCGGCG,-0.1 kcal/mol
12,GTCAACACGTGTGATG,0.22 kcal/mol
13,CGTTGCACGTGGTGCG,-0.19 kcal/mol
14,TATGTCACGTGGCATG,-0.17 kcal/mol
15,TTGGTCACGTGTGAGC,0.24 kcal/mol
16,ATCGGCACGTGTAAGT,0.03 kcal/mol
17,GCGGACACGTGGTATG,-0.05 kcal/mol
18,GGTCTCACGTGGAGAT,0.31 kcal/mol
19,AGGTGCACGTGGTCAG,-0.32 kcal/mol
20,ATAAACACGTGGTATT,-0.15 kcal/mol
21,GTTGGCACGTGGACCG,0.02 kcal/mol
22,TTTCCCACGTGTTGGG,-0.13 kcal/mol
23,TGGTACACGTGATCTG,0.12 kcal/mol
24,TAGATCACGTGATGGA,0.26 kcal/mol
25,CTTGGCACGTGTGAAA,0 kcal/mol
26,CTTTTCACGTGAGGTT,0.37 kcal/mol

row,Sequence,relative binding free energy
1,GCGTTCACGTGCTTTT,0.36 kcal/mol
2,GTGCTCACGTGGCAGG,0.17 kcal/mol
3,ACTAACACGTGGGGTT,-0.17 kcal/mol
4,ATAGGCACGTGAGGTG,0.15 kcal/mol
5,TTGATCACGTGGGGTC,-0.01 kcal/mol
6,TAGATCACGTGCATGT,0.2 kcal/mol
7,GATTGCACGTGATTTG,0.16 kcal/mol
8,ACTATCACGTGGGTGA,0.03 kcal/mol
9,TGCCTCACGTGGTGTG,-0.1 kcal/mol
10,AGATGCACGTGGGTGG,-0.17 kcal/mol
11,GGACACACGTGGTGTG,-0.14 kcal/mol
12,AGTCGCACGTGTATTG,-0.06 kcal/mol
13,TGGACCACGTGGAAGG,0.15 kcal/mol
14,CGTGCCACGTGGTTGA,-0.15 kcal/mol
15,GTTTACACGTGGGTCG,0.12 kcal/mol
16,TGGGGCACGTGAGTCG,0.19 kcal/mol
17,ATGTTCACGTGATCGG,0.07 kcal/mol
18,TTTAGCACGTGGTCGC,-0.16 kcal/mol
19,TAGCTCACGTGGAGGT,0.33 kcal/mol
20,GGTAACACGTGTTTGT,0.01 kcal/mol
21,TTGGGCACGTGTCCTT,0.05 kcal/mol
22,GATTGCACGTGATAGG,0.14 kcal/mol
23,CTATGCACGTGGATGT,0 kcal/mol
24,GTGAGCACGTGCACGG,-0.04 kcal/mol
25,CAAGGCACGTGGTGTG,-0.23 kcal/mol
26,AGGTGCACGTGTGAGT,0.14 kcal/mol

row,Sequence,relative binding free energy
1,CGCGGCACGTGGGGAA,-0.1 kcal/mol
2,AGTTGCACGTGGCGCG,-0.03 kcal/mol
3,AATATCACGTGATTTG,0.29 kcal/mol
4,TACATCACGTGGAGTG,0.16 kcal/mol
5,GTGTACACGTGGTCAT,-0.02 kcal/mol
6,ATGATCACGTGTAGAG,0.16 kcal/mol
7,GATTGCACGTGGCTTT,-0.03 kcal/mol
8,GGCATCACGTGTGTGC,0.19 kcal/mol
9,GGGTACACGTGGGACA,0.01 kcal/mol
10,GGTTCCACGTGCGTGG,0.01 kcal/mol
11,AGAATCACGTGGAAGG,0.21 kcal/mol
12,TTGCACACGTGGTGTA,-0.09 kcal/mol
13,AGTGTCACGTGAAATT,0.27 kcal/mol
14,GTAAACACGTGAGATT,0.35 kcal/mol
15,ACGGTCACGTGTGAAG,0.14 kcal/mol
16,ATTTTCACGTGTTTTG,0.18 kcal/mol
17,CGTTGCACGTGATAAT,0.11 kcal/mol
18,CGGTGCACGTGGAGGG,-0.05 kcal/mol
19,TTTGTCACGTGGAAGT,0.34 kcal/mol
20,GAGGGCACGTGGGCGG,-0.23 kcal/mol
21,GAAGGCACGTGCTTTG,-0.07 kcal/mol
22,AAATTCACGTGTATAG,0.26 kcal/mol
23,GTGCGCACGTGATGAT,0.13 kcal/mol
24,ATGGGCACGTGGTAAA,-0.01 kcal/mol
25,ATGCTCACGTGTAAGG,0.34 kcal/mol
26,GTAGGCACGTGTGTTT,0.09 kcal/mol

row,Sequence,relative binding free energy
1,TGCTGCACGTGCTGGT,-0.01 kcal/mol
2,AATTGCACGTGTCATT,0.05 kcal/mol
3,TTCCTCACGTGTGGGT,0.12 kcal/mol
4,TGTGTCACGTGTAGGC,0.08 kcal/mol
5,AGACGCACGTGTGGTA,0.11 kcal/mol
6,GGAAACACGTGTGTGT,0.01 kcal/mol
7,TGGCGCACGTGTATCG,0.17 kcal/mol
8,GGTGCCACGTGTGGAG,0.05 kcal/mol
9,AATTGCACGTGATTTA,0.03 kcal/mol
10,TGTCTCACGTGTAGTA,0.16 kcal/mol
11,GGGAGCACGTGAGTGG,0.24 kcal/mol
12,CGTTTCACGTGTGTTG,0.2 kcal/mol
13,GGCTGCACGTGTAATT,0.23 kcal/mol
14,ATTATCACGTGGGATT,0.13 kcal/mol
15,AAGGTCACGTGTTTAG,0.05 kcal/mol
16,ACTTACACGTGGGTTG,-0.05 kcal/mol
17,TCGTGCACGTGTGTAA,-0.13 kcal/mol
18,TAGCGCACGTGTGCGG,-0.1 kcal/mol
19,TTATTCACGTGTTCGC,0.28 kcal/mol
20,TTTGACACGTGTGCGA,0.05 kcal/mol
21,GATGACACGTGATGGG,0.12 kcal/mol
22,GAATTCACGTGGAATT,0.4 kcal/mol
23,CTGTGCACGTGTGCGG,-0.04 kcal/mol
24,TTTCGCACGTGTGCGG,-0.05 kcal/mol
25,GGACTCACGTGTTATT,0.23 kcal/mol
26,TGCTACACGTGTTATG,0.14 kcal/mol

row,Sequence,relative binding free energy
1,GAGGGCACGTGGGTTG,-0.21 kcal/mol
2,ACCGTCACGTGGTGGG,0.03 kcal/mol
3,GAGTTCACGTGTGTTG,0.43 kcal/mol
4,AGTATCACGTGGATTA,0.08 kcal/mol
5,TTTGACACGTGTTAGT,-0.01 kcal/mol
6,AGTTGCACGTGAGCGT,0.22 kcal/mol
7,AAGGACACGTGGAGTA,0.01 kcal/mol
8,AAGTTCACGTGAAAGG,0.42 kcal/mol
9,TGGTACACGTGCATTT,0.07 kcal/mol
10,TGGTTCACGTGAGACA,0.42 kcal/mol
11,TGCGTCACGTGGTCGG,-0.05 kcal/mol
12,AGGGGCACGTGAACGG,0.09 kcal/mol
13,TGGTGCACGTGTCGAT,0.01 kcal/mol
14,CTCTGCACGTGGGGCG,-0.18 kcal/mol
15,TGGTTCACGTGGAGTG,0.26 kcal/mol
16,GGGCGCACGTGGCGCG,-0.29 kcal/mol
17,GACTGCACGTGAGGGT,0.3 kcal/mol
18,ATGGTCACGTGAATTT,0.26 kcal/mol
19,TTTAACACGTGTGGAA,0.15 kcal/mol
20,GTTGTCACGTGGGCTA,-0.03 kcal/mol
21,TATGCCACGTGGTGAG,-0.13 kcal/mol
22,TCATTCACGTGCTGTG,0.19 kcal/mol

# From the BET-seq Pho4 binding data (Le et al. 2018)
